# Source: PubChem BioAssay AID651820 (National Center for Advancing Translational Sciences (NCATS), 2012)
# The whole screen tested about 340,000 compounds, of which about 12,000 (3.5%) were called active. The inconclusive results got no clear call from the source; some entries with a clear call stand among them for comparison. Calls follow the shape of the dose curve; as a rule, active = well fitted inhibition curve with a large enough effect; inconclusive = small, poorly fitted or top-dose-only effect, or another doubt; inactive = no such curve, though single readings can be large or run the other way. No potency is given beside an inconclusive call; the fits are too rough.
# Assay: qHTS Assay for Inhibitors of Hepatitis C Virus (HCV)
# Conditions: Huh7.5.1 HCVcc-Cre (HCVcc is cell-culture hepatitis C virus) infection, luciferase reporter, 44 h; series mostly up to 41.8 µM
# Procedure, shortened: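 Reporter virus HCVcc-Cre (~0.5 moi) infects cells exposed to compound; seeding density 1,000 cells/well with 4 h settling beforehand. Luminescence, 15 sec read, taken 44 h post-infection following a 15 min RT substrate incubation.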
# Potency is read from the fitted curve at half-maximal effect; tags tell the direction and shape of the fitted curve.
row,SMILES,Potency
1,Cc1c(C(=O)N(Cc2ccccc2)C(C)C)oc2ccc(S(=O)(=O)N3CCOCC3)cc12,"inconclusive [inhibitor, single point]"
2,c1ccc(OCc2nc3ccccc3[nH]2)cc1,"inconclusive [inhibitor, single point]"
3,O=C(CSc1nnc(CNC(=O)C23CC4CC(CC(C4)C2)C3)n1-c1ccc(F)cc1)Nc1ccccc1,"inconclusive [inhibitor, partial curve]"
4,CCN(CC)c1ccc2c(Cl)c(Br)c(=O)oc2c1,"inconclusive [inhibitor, single point]"
5,O=c1[nH]c(SCCOc2cccc3ccccc23)nc2ccccc12,inactive
6,Cc1ccnc(NC(=O)c2ccc(Cl)c(NC(=O)C(C)Oc3ccccc3)c2)c1 (centres undefined),"inconclusive [inhibitor, partial curve]"
7,CCOC(=O)n1c(=O)n(Cc2c(Cl)cccc2Cl)c2ccccc21,"inconclusive [inhibitor, single point]"
8,Cc1ccc(NC(=O)C2CCCN(S(=O)(=O)c3c(C)noc3C)C2)c(Br)c1 (centres undefined),"inconclusive [inhibitor, single point]"
9,COc1ccc(NC(=O)c2ccc(S(=O)(=O)N3CCCCCC3)cc2)c(OC)c1,"inconclusive [inhibitor, single point]"
10,O=C(NCCCN1CCOCC1)c1onc(CSc2ccc(F)c(F)c2)c1C(=O)NCCCN1CCOCC1,inactive
11,COc1ccccc1-c1nnc(Nc2nc3c(OC)cccc3s2)o1,"inconclusive [inhibitor, full curve]"
12,COc1ccc(C(C)(C)C)cc1NC(=O)CCN1C(=O)NC(C)(C)C1=O,inactive
13,N#CC1CC(c2ccccc2)=NN1c1ccccc1[N+](=O)[O-] (centres undefined),"inconclusive [inhibitor, single point]"
14,Oc1ccccc1O,"inconclusive [inhibitor, single point]"
15,CC(OC(=O)C1CCN(c2ccc(C(F)(F)F)cn2)CC1)C(=O)NC1CCCCC1C (centres undefined),"inconclusive [inhibitor, single point]"
16,O=C(Nc1nccs1)c1ccc2ccccc2c1,"inconclusive [inhibitor, single point]"
17,CCC(CO)[n+]1c(C)cc(/C=C2\Sc3ccccc3N2Cc2ccccc2)cc1C (centres undefined),"inconclusive [inhibitor, partial curve]"
18,CC(=O)C1=C(O)C(=O)N(c2ccccn2)C1c1cccc(F)c1 (centres undefined),inactive
19,CN(c1ccccc1)S(=O)(=O)c1ccc(NC(=S)NC(=O)c2ccccc2)cc1,"inconclusive [inhibitor, single point]"
20,Cn1cc(CCC(=O)NCc2cccc(Cl)c2)c2ccccc21,"inconclusive [inhibitor, partial curve]"
21,COc1ccc([C@H]2CC(=O)C=C(c3ccc4cc[nH]c4c3)C2)cc1,"inconclusive [inhibitor, single point]"
22,CCOC(=O)c1c(C)[nH]c(C(=O)OCC(=O)NCCc2ccc(OCC)c(OCC)c2)c1C,"inconclusive [inhibitor, full curve]"
23,COc1ccc(C(=O)c2oc3ccc(OC)cc3c2NC(C)=O)cc1,"inconclusive [inhibitor, single point]"

row,SMILES,Potency
1,Cc1ccc(OCC(=O)NCCS(=O)(=O)N2CCN(c3ccccc3)CC2)cc1,"inconclusive [inhibitor, single point]"
2,O=c1[nH]c2ccccc2c2ccc(Cl)cc12,"inconclusive [inhibitor, partial curve, poor fit]"
3,Cc1ccc(S(=O)(=O)CCC(=O)OCC(=O)N(C)C2CCS(=O)(=O)C2)cc1 (centres undefined),"inconclusive [inhibitor, single point]"
4,Cc1ccccc1-c1nnn(CC(=O)NC(=O)NC2CCCC2)n1,"inconclusive [inhibitor, single point]"
5,Cc1ccc(N2CC(C(=O)Nc3ccc4c(c3)OCO4)CC2=O)cc1 (centres undefined),inactive
6,CC(C)Cc1nc2ccccc2n1CCc1ccccc1,inactive
7,CN1CCN(Cc2nc3ccccc3c(=O)n2Cc2nc(-c3ccccc3F)cs2)CC1,"inconclusive [inhibitor, partial curve]"
8,COc1ccc(-c2nc(C#N)c(NCCCN(C)C)o2)cc1OC,"inconclusive [inhibitor, single point]"
9,CCn1c(-c2ccccc2Cl)nn(CC(=O)Nc2cc(Cl)ccc2Cl)c1=S,active: 12.6 µM
10,O=C(CCC(=O)Nc1ccc(Cl)cc1Cl)N/N=C/c1ccc([N+](=O)[O-])o1,"inconclusive [inhibitor, partial curve]"
11,Cc1cc(OCCCC(=O)Nc2cc(S(=O)(=O)N3CCOCC3)ccc2N2CCOCC2)ccc1Cl,"inconclusive [inhibitor, single point]"
12,CCCCn1c(N)c(N(CCOC)C(=O)c2c(CC)noc2C)c(=O)[nH]c1=O,inactive
13,Cc1ccnc(NC(c2ccccc2)c2ccc3cccnc3c2O)c1 (centres undefined),active: 12.6 µM
14,CCCc1cc(=O)oc2c(C)c(OS(C)(=O)=O)ccc12,"inconclusive [inhibitor, single point]"
15,CC1=Nc2ccccc2N=C(NC(=O)CSc2nnnn2-c2ccccc2)C1c1ccccc1 (centres undefined),"inconclusive [inhibitor, single point]"
16,Cc1ccc(C(=O)NCCC(=O)N2CCOCC2)cc1,inactive
17,CC(=O)NCCC(=O)N1CCc2c([nH]c3ccccc23)C1c1cccc(C)c1 (centres undefined),inactive
18,COc1ccc(OCc2nnc(NC(=O)Nc3ccc(F)cc3)s2)cc1,inactive
19,C=CCn1c(C)cc(C2=NNC(=NCc3ccccc3)SC2)c1C,"inconclusive [inhibitor, single point]"
20,COc1ccccc1-n1c(=S)[nH]c2c(sc(=S)n2-c2ccccc2)c1=O,"inconclusive [inhibitor, single point]"
21,O=C(Nc1ccccc1)c1cc(S(=O)(=O)N2CCSCC2)ccc1Cl,"inconclusive [inhibitor, single point]"
22,O=C(COC(=O)Cc1c(Cl)cccc1Cl)Nc1ccccc1-c1ccccc1,"inconclusive [inhibitor, single point]"
23,CCCc1noc2c1/C(=N\O)CC(CC(C)SCC)C2 (centres undefined),"inconclusive [inhibitor, partial curve]"

row,SMILES,Potency
1,O=C(Nc1cn(-c2ccccc2)nc1-c1ccc(Cl)cc1)c1ccccc1,"inconclusive [inhibitor, partial curve, poor fit]"
2,CC(C)(C)C(=O)/C(=C\c1cccc([N+](=O)[O-])c1)n1cncn1,active: 2.51 µM
3,CCOC(=O)c1c(C)oc2c1cc(NS(=O)(=O)c1ccc(C(=O)O)cc1)c1ccccc12,inactive
4,COc1cc2c(cc1Cl)/C(=C\CCN(C)C)c1ccccc1S2,"inconclusive [inhibitor, partial curve]"
5,CCOC(=O)c1ccc2nc(C)c3c(c2c1)OC(C)C3 (centres undefined),active: 10 µM
6,Cc1cccc(Cn2cccc2/C=C2/C(=N)N3C=CSC3=NC2=O)c1,"inconclusive [inhibitor, single point]"
7,CCCCN(Cc1ccccc1)S(=O)(=O)c1cc(Br)cc2c1N(C(C)=O)C(C)C2 (centres undefined),active: 5.01 µM
8,C=CCN1C(=O)C2(OCCCO2)c2cccc(C)c21,inactive
9,Cc1ccc2nc(-c3ccccc3)cc(C(=O)NCCCn3ccnc3)c2c1,inactive
10,COc1ccc2nc(SCC(C)=O)c(C#N)cc2c1,"inconclusive [inhibitor, single point]"
11,CCN1CCN(Cc2c(O)ccc3c2O/C(=C\C=C\c2ccccc2)C3=O)CC1,"inconclusive [inhibitor, single point]"
12,Cc1cccc(/C=C/c2onc(C)c2S(=O)(=O)N2CCC(C(=O)N3CCC(C)CC3)CC2)c1,"inconclusive [inhibitor, single point]"
13,COc1cccc(CNC(=S)NC2CCCC2)c1,"inconclusive [inhibitor, single point]"
14,FC(F)(F)c1ccccc1-n1ccnc1,"inconclusive [inhibitor, partial curve]"
15,COc1ccc(CCN2C(=O)C3C4CCC(C4=C(C)C)C3C2=O)cc1OC (centres undefined),inactive
16,CCCCNC(=O)CCCN1C(=O)c2cccnc2Sc2ccccc21,inactive
17,O=C(O)c1cccc(Cn2c(Cl)c(/C=N/Nc3ccccc3)sc2=O)c1,"inconclusive [inhibitor, single point]"
18,CCc1[nH]nc(C(=O)NC2CCCN(Cc3ccccc3F)C2)c1C (centres undefined),inactive
19,Cc1ccc(CN2C3CCCC2CC(NC(=S)NCc2ccccc2)C3)cc1 (centres undefined),"inconclusive [inhibitor, partial curve]"
20,CCc1ccccc1NC(=O)CN(c1ccc(OC)cc1OC)S(=O)(=O)c1ccccc1[N+](=O)[O-],"inconclusive [inhibitor, single point]"
21,O=C(NCc1nnc(SCC(=O)N2CCN(c3ccccc3)CC2)o1)c1c(F)cccc1F,"inconclusive [inhibitor, single point]"
22,Cc1cccc(N/C(N)=N/c2nc(C(F)(F)F)cc(=O)[nH]2)c1C,inactive
23,O=C(c1ccc(N2CCCC2)c([N+](=O)[O-])c1)N1CCc2ccccc2C1,"inconclusive [inhibitor, partial curve]"
